Results reported in PubChem BioAssay AID588855 (National Center for Advancing Translational Sciences (NCATS), 2011).
In all, about 410,000 compounds went through this assay and about 5,000 (1.2%) were called active. Inconclusive means that the source gave no clear call. Such entries were picked first, then a sample of the others. Calls come from the whole dose curve; as a rule, active = well fitted inhibition curve with a large enough effect; inconclusive = small, poorly fitted or top-dose-only effect; inactive = no such curve, though single readings can be large or run the other way. Potencies of inconclusive entries are doubtful fits and often do not repeat. Peptide text beside a SMILES is read from it. * marks the point of attachment. Cbz = O=C(OCc1ccccc1)*; CH2Cl = ClC*

Assay: qHTS for Inhibitors of TGF-b; note: nearly all actives have a fitted effect of over 65% in size
Details: HepG2 CAGA-GFP TGF-b/SMAD3 reporter, GFP fluorescence, 18 h, TGF-beta stimulated, 500 pg/mL final; series mostly up to 46.1 µM
Procedure, shortened: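 TGF-beta reporter screen: HEPG2 CAGA-GFP, 1% FBS, 500 pg/mL TGF-beta final, 18 h; per-cell GFP summed per well; curves fitted and categorized by class.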
Potency is the fitted concentration of half-maximal effect; tags give direction and shape of the fitted curve.

SMILES | Potency
CCC/C(=C1/c2ccccc2C(=O)N1c1ccccc1)c1ccc(O[C@@H]2CCCCO2)cc1 | inconclusive: 1.78 µM [inhibitor, partial curve, poor fit]
COc1cccc(-c2cc(C(=O)N3CCN(Cc4ccccc4)CC3)no2)c1 | inconclusive: 8.91 µM [inhibitor, partial curve]
CCCc1nc(SCC(=O)Nc2nc3c(s2)CCCC3)c2ccccc2n1 | inconclusive: 20 µM [inhibitor, single point]
CCOc1ccc(S(=O)(=O)Nc2cc(Cl)ccc2OC)c2cccnc12 | inconclusive: 4.47 µM [inhibitor, full curve]
Cc1ccc(Oc2nc3ccccc3n3cccc23)cc1 | inconclusive: 35.5 µM [inhibitor, single point]
COc1ccc(-c2cn[nH]c2-c2ccc(OC)cc2O)cc1 | inconclusive: 17.8 µM [inhibitor, single point]
Cc1ccc(/C=C/c2onc(C)c2S(=O)(=O)N2CCC(C(=O)Nc3cc(F)ccc3F)CC2)cc1 | inconclusive: 0.562 µM [inhibitor, partial curve, poor fit]
O=C(Oc1cc(-c2ccccc2)no1)c1ccc(Cl)cc1 | inconclusive: 5.62 µM [inhibitor, single point]
COc1ccc(C(=O)NC2CCCCC2)cc1OC1CCN(C(C)C)CC1 | inconclusive: 2.82 µM [inhibitor, single point]
CCOc1ccc2nc(N3CCCC(C(=O)NCc4ccccc4OC)C3)sc2c1 (stereo not given) | inconclusive: 3.98 µM [inhibitor, full curve, poor fit]
Cc1ccc(Cl)cc1N1CCN(C(=O)c2ccc(CS(=O)Cc3ccc(Cl)cc3)o2)CC1 (stereo not given) | inconclusive: 35.5 µM [inhibitor, single point]
Cc1ccc(Cl)cc1NC(=O)C1CCN(c2nc3ccccc3n3cccc23)CC1 | inactive
CC(=O)c1ccccc1OCCCOc1cccc2cccnc12 | inconclusive: 22.4 µM [inhibitor, single point]
CCn1c(CNC(=O)Cc2ccc(OC)cc2)nnc1SCCOc1ccccc1 | inactive
Cc1nnc2c3ccccc3nc(Nc3cccc(O)c3)n12 | inconclusive: 20 µM [inhibitor, partial curve, poor fit]
COc1cccc(NC(=S)NN=C2CCCCCC2)c1 | inactive
Nc1nonc1-n1nnc(C(=O)N/N=C/c2ccc(Cl)cc2Cl)c1CN1CCOCC1 | inactive
COc1cc(C2C(C(=O)Nc3ccccc3)=C(C)Nc3nnnn32)cc(OC)c1OC (stereo not given) | inactive
CCOc1ccccc1/C=N/NC(=O)c1nnn(-c2nonc2N)c1CN1CCC(C)CC1 | inconclusive: 0.1 µM [inhibitor, full curve, poor fit]
O=C(COc1ccc(C(=O)c2ccccc2)cc1)NCc1ccc(F)cc1 | inconclusive: 7.08 µM [inhibitor, full curve]
COc1ccc(-c2noc(CN(C(=O)c3cc(OC)c(OC)cc3OC)C(C)C)n2)cc1 | inconclusive: 35.5 µM [inhibitor, partial curve, poor fit]
CCOC(=O)c1c(-c2ccc(-c3ccccc3)cc2)csc1NC(=O)CCN1CCOCC1 | inconclusive: 15.8 µM [inhibitor, single point]
NNC(=O)COc1cccc(C(F)(F)F)c1 | inactive
O=[N+]([O-])c1ccc(NCc2ccc3c(c2)OCO3)cc1 | inactive

SMILES | Potency
Cc1cccc(Nc2nnc(SCC(=O)Nc3cccc(S(=O)(=O)N4CCCCC4)c3)s2)c1 | inconclusive: 25.1 µM [inhibitor, single point]
CCN(CC)CCNC(=O)c1ccc(-n2c(-c3ccccc3)cc3c2CCCC3)cc1 | inactive
COc1cc(N/N=C(\C)c2ccc(O)c(C)c2)nc(-c2ccccc2)n1 | inconclusive: 35.5 µM [inhibitor, single point]
Fc1ccc(C(c2nnnn2C2CCCC2)N2CCN(Cc3ccccc3)CC2)cc1 (stereo not given) | inactive
COc1cc(OC)cc(-c2sc3ccc(OC)cc3c2C#CC2(N)CCCCC2)c1 | inconclusive: 25.1 µM [inhibitor, partial curve, poor fit]
CCOc1ccccc1C=C1CCc2ccccc2C1=O | inactive
CC(C)CC(NC(=O)OCc1ccccc1)C(=O)NC(Cc1ccccc1)C(=O)CCl (stereo not drawn) (Cbz-Leu-Phe-CH2Cl; configuration not given here) | active: 10 µM
O=C1CN(C(=O)c2ccc(Br)o2)C(c2ccc(F)cc2)c2cc(Cl)ccc2N1 (stereo not given) | inconclusive: 14.1 µM [inhibitor, partial curve]
CCOC(=O)C1(CCCc2ccccc2)CCN(C(=O)CCCn2cncn2)CC1 | inactive
COc1ccc(C(=O)N/N=C(\C)c2ccccn2)cc1OC | inconclusive: 17.8 µM [inhibitor, partial curve, poor fit]
CC(C)c1cc(C(C)C)c(S(=O)(=O)N2CCNCC2)c(C(C)C)c1 | inconclusive: 35.5 µM [inhibitor, single point]
Cc1ccccc1NCC(=O)N/N=C/C(Br)=C/c1ccccc1 | inconclusive: 12.6 µM [inhibitor, partial curve]
C#CC[N+]1(CC#Cc2ccc(C#CC[N+]3(CC#C)CCOCC3)cc2)CCOCC1 | inactive
Cc1c(Cl)c([N+](=O)[O-])nn1CC(=O)NCc1ccco1 | inconclusive: 3.98 µM [inhibitor, single point]
Cc1cc([N+](=O)[O-])nn1CCCC(=O)Nc1cc(Oc2ccccc2)cc([N+](=O)[O-])c1 | inactive
O=S(=O)(Nc1ccccc1)c1ccc(-c2csnn2)cc1 | inactive
CCN(c1ccccc1)S(=O)(=O)c1cccc(C(=O)NCc2ccccn2)c1 | inconclusive: 10 µM [inhibitor, partial curve]
CCn1c(CNc2nc3ccccc3n2C(C)C)nc2ccccc21 | inconclusive: 7.94 µM [inhibitor, partial curve, poor fit]
CCN(CC(=O)Nc1ccc(NC(C)=O)cc1)C(=O)c1cc(-c2ccccc2)nn1-c1ccccc1 | inconclusive: 35.5 µM [inhibitor, single point]
O=C(COc1ccc(Cl)cc1)N/N=C/c1cccc2cccnc12 | inconclusive: 35.5 µM [inhibitor, single point]
Cc1cccc(NC(=O)C(=O)NCCc2csc(-c3ccc(C(F)(F)F)cc3)n2)c1C | inactive
O=C(CC1N=C2c3ccccc3N=C(SCC(=O)Nc3ccccc3F)N2C1=O)NCc1cccs1 (stereo not given) | inactive
COc1cc(NC(=O)c2ccc(-c3c(C)noc3C)c3ccoc23)cc(OC)c1OC | inactive
CC1=Nc2cc(C(=O)NC(C)C)ccc2Sc2ccc(C)cc21 | inconclusive: 8.91 µM [inhibitor, single point]

SMILES | Potency
COc1cccc(-c2ccc3ncnc(NCc4cccc(C)c4)c3c2)c1 | inconclusive: 28.2 µM [inhibitor, single point]
CCOC(=O)CC(=O)CSc1nc(CC)c(C)cc1C#N | inactive
OC(c1ccc(F)cc1)c1nc(-c2ccccc2)cs1 (stereo not given) | inactive
COc1ccc(C(C)=O)cc1CSc1ccc(S(=O)(=O)N2CCCCC2)cn1 | inconclusive: 35.5 µM [inhibitor, single point]
Cc1cc(C)cc(NC(=O)C2CCN(S(=O)(=O)c3cccc(-c4noc(C)n4)c3)CC2)c1 | inconclusive: 2.51 µM [inhibitor, single point]
CCOc1ccc(C(=O)NC(=S)Nc2cccnc2)cc1 | inactive
COc1ccc(S(=O)(=O)c2nnn(-c3ccc(C)c(Cl)c3)c2C)cc1 | inconclusive: 3.16 µM [inhibitor, partial curve, poor fit]
Cc1ccc(S(=O)(=O)N(C)c2cc(S(=O)(=O)N3CCC(C)CC3)c(C)cc2C)cc1 | inactive
Cc1ccc(-c2nc3c(c(=O)[nH]c(=O)n3CC(C)C)n2CC(C)C)cc1[N+](=O)[O-] | inconclusive: 25.1 µM [inhibitor, single point]
CCOc1ccc2nc(NCCCNS(=O)(=O)c3ccccc3)c(C#N)cc2c1 | inactive
COc1cccc(C(C)(O)c2nc(/C=C/c3ccccc3)cs2)c1 (stereo not given) | active: 14.1 µM
Cc1cc(C)c(NC(=O)C2CCN(C(=O)N3CCOc4ccccc43)CC2)c(C)c1 | inconclusive: 12.6 µM [inhibitor, single point]
O=C(Nc1ccc(Cl)cc1)N1CCC(c2nc(-c3cccs3)no2)CC1 | inconclusive: 35.5 µM [inhibitor, single point]
COc1cc2c(cc1OC)C(c1ccc(Br)cc1)NCC2 (stereo not given) | inactive
CC1CCCCN1C(=O)c1ccc(C(=O)Nc2ccc(F)cc2)cc1 (stereo not given) | inconclusive: 3.55 µM [inhibitor, full curve, poor fit]
CCOC(=O)C1CN(S(=O)(=O)c2ccc(C)cc2)c2ccccc2O1 (stereo not given) | inactive
CC1CCN(c2nc3c(c(=O)n(C)c(=O)n3C)n2CCSc2ncccn2)CC1 | inactive
O=S1(=O)c2c(F)cccc2OC(COCc2ccccc2)CN1C1CCCC1 (stereo not given) | inconclusive: 3.55 µM [inhibitor, full curve]
O=C(NC1CCCC1)c1ccccc1OCc1ccccc1 | inconclusive: 35.5 µM [inhibitor, single point]
CN(CCc1ccccn1)C(=O)CCC1CCCN(C(=O)NC2CCCCC2)C1 (stereo not given) | inactive
O=C(CSc1nnc(COc2ccc(F)cc2)o1)N1c2ccccc2CCc2ccccc21 | inconclusive: 31.6 µM [inhibitor, partial curve, poor fit]
CCOC(=O)c1cccc(NS(=O)(=O)c2ccc(-c3coc(C)n3)cc2)c1 | inactive
